Laboratory results published in the RNAGym collection of RNA variant scans (doi:10.1093/nar/gkz1192).
The source gives no read counts; variants with many changes may rest on few reads.

B1: CPEB3 Ribozyme (parent)
chain: UAACAGGGGGCCACAGCAGAAGCGUUCACGUCGCAGCCCCUGUCAGAUUCUGGUGAAUCUGCGAAUUCUGCUGUAUAUCUC

Variants of: B1
Assay: self-cleavage, relative activity (ratio to wild type); higher = more cleavage; in vitro, sequencing
Outline: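 Libraries of CPEB3 self-cleaving ribozyme mutants came from rounds of error-prone PCR and carried barcodes, which DNA sequencing matched to variants. In vitro transcription used T7 RNA polymerase at 37°C for 5 hours, with a further 15 min in DNase I before EDTA stopped the reaction; the ribozymes cleaved during both steps. The RNA was reverse transcribed with template switching and sequenced on Illumina. Relative activity is the cleaved/total read fraction of a variant divided by that of the unmutated ribozyme, averaged over three batches with at least 5 reads.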

**Q.** With UAACAGGGGGCCACAGCGGAAGCGUUCACGUCGCAGCCCCUGUCAGAUUCUGGUGAAUCUGCGGAUUCCGCUGCUUAUCUC [A18G A64G U69C U74C A75U] as the variant, how does the self-cleavage read?
**A.** Its self-cleavage is 0.94.

**Q.** With UAACAGGGGGCCACAGCGGAAGCGUUCACGUCGCAGCCCCUGUAAGAAUCUGGUUAAUCUGCGAAUUCUGCUGUAUAUCUC [A18G C44A U48A G55U] as the variant, how does the self-cleavage read?
**A.** The self-cleavage was 0.11.

**Q.** For UAACAGGGGGCCACAGCGGAAGCGUUCACAUCGCGGCCCCUGUCAGAUUCUGGCGAUUCUGCGAACUCCGCUGUAUAUCUC [A18G G30A A35G U54C A57U U66C U69C], which self-cleavage is on record?
**A.** Its self-cleavage is 0.12.

**Q.** With UAACAGGGGGCCACAGCGGAAGCGUUCACGUCACGGCCCCUGUCAGAUUCUGGUGAAUCUGCGAAUUCUGCUGUAUAUCUC [A18G G33A A35G] as the variant, how does the self-cleavage read?
**A.** Its self-cleavage is 0.24.

**Q.** Which self-cleavage does the source give for UAACAGGGGGCCACAGCGGAAGCGUUCACGUCGCAGCUCCUGUCACGUUCUGGUGAACCUGCGAAUUCUGCUGUAUAUCUC [A18G C38U G46C A47G U58C] here?
**A.** The self-cleavage was 0.08.

**Q.** Which self-cleavage does the source give for UAACAGGGGGCCACAGCGGAAGCGUUCAUGUCGCAGCCCCUGUCAGAUCCUGGUGAUUCUGCGAAUCCUGCUGUAUAUCUC [A18G C29U U49C A57U U67C] here?
**A.** Its self-cleavage is 0.06.

**Q.** Which self-cleavage does the source give for UAACAGGGGGCCACAGCGGAAGCGCUCUCGUCGCAGCCCCUUUCUGAUUCUGGUGGAUCUGCGAAUUCUGCCGUAUAUCUC [A18G U25C A28U G42U A45U A56G U72C] here?
**A.** The self-cleavage was 0.13.

**Q.** With UAACAGGGGGCCACAGCGGAAGUGUUCACGUCGCAGCCCCUGUCGGAUUCUGGUGAAUCUGAGAAUUCUGCUGCAUAUCUC [A18G C23U A45G C62A U74C] as the variant, how does the self-cleavage read?
**A.** The self-cleavage was 0.15.

**Q.** For UAACAGGGGGCCACAGCGGAAGCGUUCACGUCGCAACCCCUGUCAGAUCCUGGUGAGUCUGCGAAUUCUGCUGUAUCUCUC [A18G G36A U49C A57G A77C], which self-cleavage is on record?
**A.** Its self-cleavage is 0.07.

**Q.** For UAACAGGGGGCCACAGCGGAAGCGUUCACGUCGCAGCCCCUGUCAGAUUCUGGUGAGUCAGCGUAUUCUGCUGCAUAUCUC [A18G A57G U60A A64U U74C], which self-cleavage is on record?
**A.** The self-cleavage was 0.29.

**Q.** Which self-cleavage does the source give for UAACAGGGGGCCACAGCGGAAGCGUUCACGUCGCAACCCCUGCCAGAUUCUGGUGAGCCUGCGAGUUCUGCUGUAUAUCUC [A18G G36A U43C A57G U58C A65G] here?
**A.** Its self-cleavage is 0.06.

**Q.** For UAACAGGGGGCCACAGCGGAAGCGUUCACGUCGCAGCCCCUGUCAGAUUCUGGUGAAUCUGCGAAUUCUUCUGUAUAUCCC [A18G G70U U80C], which self-cleavage is on record?
**A.** Its self-cleavage is 0.17.

**Q.** With UAACAGGGGGCCACAGCGGAAGCGUUCACGUAGCAGCCCCUGCCAGAUUCUGGUGAAUCUGCGAAUUCUGCUGUAUAUCUA [A18G C32A U43C C81A] as the variant, how does the self-cleavage read?
**A.** The self-cleavage was 0.12.

**Q.** With UAACAGGGGGCCACAGCGGAAGCGUUUACGUCGCAGCCCCUGCCAGAUUCUGGUGAAUCUGCGAAUUCUGCUGUAUAUCUU [A18G C27U U43C C81U] as the variant, how does the self-cleavage read?
**A.** The self-cleavage was 0.08.

**Q.** Which self-cleavage does the source give for UAACAGGGGGCCACAGCGGAAGUGUUCACGUCGCAGCCCCUGUCAGAUUCUGGUGAAUCUGCGAGUCCUGCUGUAUAUCUC [A18G C23U A65G U67C] here?
**A.** Its self-cleavage is 0.2.

**Q.** Which self-cleavage does the source give for UAACAGGGGGCCACAGCGGAAGCGUUCAUGUCGCAGCCCCUGUCAGAUUCUGGUGAAUCUAUGAAUUCUGCUGUAUAUCUC [A18G C29U G61A C62U] here?
**A.** Its self-cleavage is 0.27.

**Q.** Which self-cleavage does the source give for UAACAGGGGGCCACAGCGGAAGAGUUCACGUCGCAGCCCCGGUCAGAUUCUGGUGAAUCUGCGGAUUCUGCUGUAUAUCUC [A18G C23A U41G A64G] here?
**A.** Its self-cleavage is 0.1.

**Q.** Which self-cleavage does the source give for UAACAGGGGGCCACAGCGGAAGCGUUCACGUCGCAGCCCCUGUCAGAUUCUGGUGAAUCUGCGAGUUCUGCUGUAUAUCAC [A18G A65G U80A] here?
**A.** Its self-cleavage is 0.35.

**Q.** With UAACAGGGGGCCACAGCGGAAGCGUUAACGUCGCAGCCCCCGUCAGAUUCUGGUGAAUCUGCGAAUUCUGCAGUAUAUCUC [A18G C27A U41C U72A] as the variant, how does the self-cleavage read?
**A.** Its self-cleavage is 0.17.

**Q.** Which self-cleavage does the source give for UAACAGGGGGCCACAGCGGAAGCGUUCAGGUCGCAGCCCCUGUCAGAUUCUGGUGAAUCUGCGAGUUCUGCUGUAUAUCUC [A18G C29G A65G] here?
**A.** The self-cleavage was 0.26.

**Q.** Which self-cleavage does the source give for UAACAGGGGGCCACAGCGGAAGCGUUCACGUCGCAGCCCCUGUCAGAUUCUGGUGAAUCUGCGAAUUCUGCUGUAUUUCCC [A18G A77U U80C] here?
**A.** The self-cleavage was 1.07.

**Q.** With UAACAGGGGGCCACAGCGGAAGCGAUCACGUCGCGGCCCCUGUCAGACUCAGGUGAAUCUGCGAAUUCUGCUGUAUAUCUC [A18G U25A A35G U48C U51A] as the variant, how does the self-cleavage read?
**A.** Its self-cleavage is 0.21.

**Q.** Which self-cleavage does the source give for UAACAGGGGGCCACAGCGGAAGCAUUCACGUCGCAGCCCCUGUAAGAUUCUGGUGAAUCUGCGAAUUCUGCUGUAUAUCUC [A18G G24A C44A] here?
**A.** Its self-cleavage is 0.07.

**Q.** Which self-cleavage does the source give for UAACAGGGGGCCACAGCGGAAGCGUUCACGUCGGAGCCCCUGUCAGAUUCUGGCGAAUCUGCGAAUUCUGCUGUAUAUCUC [A18G C34G U54C] here?
**A.** Its self-cleavage is 0.06.

**Q.** With UAACAGGGGGCCACAGCGGAAGCGUUCACGUUGCAGCCCCUGUCAGAUUCUGGUGAAUCUGUGAAUUCUGCUGUAUAUCUC [A18G C32U C62U] as the variant, how does the self-cleavage read?
**A.** Its self-cleavage is 0.15.

**Q.** Which self-cleavage does the source give for UAACAGGGGGCCACAGCGCAAGUGUUCACGUCGCAGCCCCUGUCAGAUUCUGGUGAAUCUGCGAACUCCGCUGUUUAUCUC [A18G G19C C23U U66C U69C A75U] here?
**A.** Its self-cleavage is 0.08.

**Q.** For UAACAGGGGGCCACAGCGGAAGCGCUCACGUCGCAGCCCCUGUCAGAUUCUGGUGAGUCUGCGAAUUCUGCUGUAUGUCUC [A18G U25C A57G A77G], which self-cleavage is on record?
**A.** Its self-cleavage is 0.24.

**Q.** Which self-cleavage does the source give for UAACAGGGGGCCACAGCGGAAGCGUUCACGUCCCAGCCCCUGUCAGAUACUGGUGAAUCUCCGAAUUCUACUGUAUAUCUC [A18G G33C U49A G61C G70A] here?
**A.** Its self-cleavage is 0.14.

**Q.** For UAACAGGGGGCCACAGCGGAAGCGUUCACGUCGCAGCCCCUGUCAGAUUCUGGUGAGUCUGCGAAUUCUGCUGUAUAUCAC [A18G A57G U80A], which self-cleavage is on record?
**A.** Its self-cleavage is 0.83.

**Q.** Which self-cleavage does the source give for UAACAGGGGGCCACAGCGGAAGCGUUCACGUCGCAGCCCUUGCCAGAUUCUGGUGAAUCUGCGAACUCUGCUGUAUAUCUC [A18G C40U U43C U66C] here?
**A.** The self-cleavage was 0.12.

**Q.** Which self-cleavage does the source give for UAACAGGGGGCCACAGCGGAAGCGUUCACUUCGCAGCCCCUGUCGGAUUCUGGUGAAUCUGCGAGUUCUGCUGCAUAUCUC [A18G G30U A45G A65G U74C] here?
**A.** Its self-cleavage is 0.19.

**Q.** Which self-cleavage does the source give for UAACAGGGGGCCACAGCGGAAGCGUUCACUUCGCAGCCCCUGUCAGAUUCUGGUGGAUCUGCGAAUCCUGCUGUAUAUCUC [A18G G30U A56G U67C] here?
**A.** Its self-cleavage is 0.13.

**Q.** Which self-cleavage does the source give for UAACAGGGGGCCACAGCGGAAGCGUUCAAGUCGCAGCCCCUGUCAGAUUCUGGUGAAUCUGCGAAUUCUGCAGUAUAUCCC [A18G C29A U72A U80C] here?
**A.** The self-cleavage was 0.5.

**Q.** With UAACAGGGGGCCACAGCGGAAGCGAUCACGUCGCAGCCCCUGUCAGAUUCUGGUGAACCUGCGAAUUCUGCUGUAUAUCUC [A18G U25A U58C] as the variant, how does the self-cleavage read?
**A.** The self-cleavage was 0.22.
